Results taken from the supplement of paper PMC3334620.
The full ranking holds about 33,000 sequences; the median of “E-score (-0.5 to 0.5)” is about -0.035, and the highest 2% start at about 0.34. Some of the results follow.

target: T1, Mot3 (UniProt P54785); experiment: PBM E-score (8-mer binding enrichment) (E-score (-0.5 to 0.5)); higher = stronger / more preferred TF binding; most listed sequences are background and not binding sites; conditions: protein concentration: 200 nM; construct: GST-full length
T1 sequence: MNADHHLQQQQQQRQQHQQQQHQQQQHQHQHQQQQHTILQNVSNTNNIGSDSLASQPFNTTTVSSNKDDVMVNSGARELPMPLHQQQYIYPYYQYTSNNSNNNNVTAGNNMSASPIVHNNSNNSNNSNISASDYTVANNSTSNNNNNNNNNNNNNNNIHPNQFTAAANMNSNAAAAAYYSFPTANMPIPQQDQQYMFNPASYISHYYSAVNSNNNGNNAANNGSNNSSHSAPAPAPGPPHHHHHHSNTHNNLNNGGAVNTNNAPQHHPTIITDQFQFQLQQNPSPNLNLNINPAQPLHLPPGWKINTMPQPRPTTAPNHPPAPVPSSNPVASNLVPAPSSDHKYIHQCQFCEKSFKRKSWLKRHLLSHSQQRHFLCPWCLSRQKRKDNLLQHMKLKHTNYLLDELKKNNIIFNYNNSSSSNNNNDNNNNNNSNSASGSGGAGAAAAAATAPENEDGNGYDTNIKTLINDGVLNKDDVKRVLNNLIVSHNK
Method in brief: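 Universal all-10-mer Agilent arrays, double-stranded by primer extension on fresh or once-stripped slides, were probed with about 100-200 nM GST-tagged yeast transcription factors made by PURExpress. Fluorescent anti-GST detected bound protein, and masliner normalised the scans. E-scores from the Universal PBM Analysis Suite were given to each ungapped eight-base word pooled with its reverse complement.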

Sequence | PBM E-score
CGAGCAAC | 0.0725
GGTTACCA | -0.0508
CGGCCAAA | 0.047
TCACGTAA | 0.306
GTCGATTA | 0.0146
CTGTTAAG | 0.259
CACCGCTA | -0.133
ATTGTTAA | 0.235
AAAGGTCT | -0.0534
AGAGTGTA | 0.0658
CCTGTTAA | 0.297
ATAGAACA | 0.123
ATGTACTA | 0.315
CCGTGTTA | 0.376
ACCTTTAG | 0.0895
ACTAAGGC | 0.0062
CGTCACTA | -0.0785
CCAATCAG | -0.22
AGCGGCAG | -0.223
ATTGGCAA | 0.0509
CGTCGGGA | -0.272
CTGGTCGC | -0.0546
GTAGCGGA | -0.149
ATCACGCA | 0.09
AAAGCGCT | -0.0135

Sequence | PBM E-score
TAGAGGAA | -0.0809
ACGCGGAT | 0.301
ATTTCCCG | 0.114
GGAATAAC | 0.153
ATGTGGAA | 0.00649
CCTCTTAG | -0.0201
CTGGTTAA | 0.201
AGACGCCG | -0.0857
GAAGCCGA | -0.273
TAGGGATA | -0.0974
CAACTGAG | 0.00667
GACAACCA | -0.13
CGGTCAAC | 0.0299
TAGCGCCA | -0.234
ACTTCAGA | 0.0768
CCCTCCGC | -0.208
AATACACA | 0.389
GGCATCGA | 0.103
CGGCCCAC | -0.112
AGACGAGG | -0.226
AGTAATTA | 0.246
CCTCCTTA | -0.114
GAGAAACC | -0.137
ACCTATGG | -0.109
CTATCCCA | -0.0179

Sequence | PBM E-score
AACCGGTG | -0.14
ACTGTTCG | -0.0349
ATAACGCC | 0.181
ATCGCGTA | 0.329
TAAACGTA | 0.21
AACTCTTC | -0.178
ACGTGTGA | 0.184
CTCGTACA | 0.0541
TAGTTTGA | 0.0471
CACTCGCG | -0.117
TATTCACA | 0.221
GCTGGGCC | -0.344
CGGGAATC | -0.402
TAACATTA | 0.29
AGCAAAGC | -0.0367
CCTCACGA | -0.174
TGCGAAAA | 0.224
ATCTCACA | -0.0227
CCAATATC | -0.275
ACCTACCC | -0.176
ATAATTCC | 0.0837
GTCCGGGA | -0.131
CATCCAAA | 0.159
TAGGACCA | -0.166
CGTGCGAC | -0.0716

Sequence | PBM E-score
CTCAATGA | -0.0587
CCCCGTAG | -0.165
AGTGGCAG | -0.238
ATTATATG | 0.142
GGTTCTCA | 0.0406
CACTTCGG | -0.122
GTCGGGCA | -0.0696
ACCTAGAG | -0.0569
ACTTTAGG | 0.175
AAATCGAT | 0.00707
CACAGGAC | -0.175
CAAGCGCC | -0.0468
AGGGTTGC | 0.0524
AGTAGTTC | -0.00861
AGACGTTG | -0.0528
ACCGGAAC | -0.264
ACCCGTTG | -0.0767
CTTTGCAA | -0.0316
GACTCCGC | -0.289
CCTCTCAG | -0.149
GGCGCTAA | -0.154
AGAATGCT | -0.1
TACATGGA | 0.346
AAATGTTG | 0.0783
AAGAGAGG | -0.0458

Sequence | PBM E-score
GAAAAGTC | -0.0719
ATTATTGA | 0.0959
ATGAAACG | 0.0168
GAGCCTAC | 0.273
CCCCGTAA | -0.0187
CCAGCCAC | -0.19
CAACTTAC | 0.144
AATCAAGC | -0.177
AGACACCC | 0.0261
AGCCGCTA | -0.161
CATCAGGA | 0.167
AGGTGTCG | 0.124
CTGGCCCA | -0.265
ACGCTGTG | 0.207
GACTTAAC | 0.0265
ACTCAAAT | 0.0774
ACAACAAC | 0.274
GCACGGCA | 0.151
AAATTCCA | 0.0982
TCAGAGCA | -0.281
GGGAGGTA | 0.0239
ATATGATA | 0.185
CGCTCCAG | -0.0583
GAGTGCGC | -0.229
ATAATATA | 0.215

Sequence | PBM E-score
ATCACGTG | 0.098
AATTAATA | 0.229
AAGCTTCG | -0.115
ACTTATTC | -0.229
ACCCGGTC | -0.167
CGCATGAC | -0.0222
TCGTGCAA | 0.148
CATAATCA | 0.119
CCTCTCTC | -0.252
AGTGTCTG | -0.113
ACTGATGC | 0.0402
CCGGCTTC | -0.338
GAGGGTGC | -0.215
AAGTTGAT | 0.109
AACTGCAG | -0.0674
GTTATTAA | 0.169
AGTGATCA | -0.219
CCAAACCA | -0.0679
GGCGCACC | -0.142
AGACGTAT | 0.0119
ACACGCAA | 0.262
GCCCCGGA | -0.162
GCAACCCA | 0.0269
GCTGCAGA | -0.0977
GACACTTA | 0.187

Sequence | PBM E-score
AAACACTT | 0.117
ATGTCAAA | 0.242
TAGGATCA | 0.0879
AACGCGAG | 0.0856
AATTAGAA | 0.0347
AGGCGGGC | -0.164
ACATGTCA | 0.319
ACTGACCC | -0.172
AGTAGTGG | -0.0203
CGGGTCTA | -0.0246
AGAACTCA | 0.0456
ACCCGTAC | -0.0782
ATAAAGGC | 0.186
ACGATACG | 0.0539
CGGTCTCC | -0.283
CGAAGGGA | -0.0448
GGCAACGA | 0.285
GAATCGGA | -0.0835
CCCGACCG | -0.247
CTAGTCCA | -0.134
AGTTTGAT | -0.121
CAGACACC | -0.0175
